Experimental data: PubChem BioAssay AID1461 (National Center for Advancing Translational Sciences (NCATS), 2008)
Hit rate of the full screen: of about 220,000 compounds, about 2,300 (1%) were called active. Inconclusive means that the source gave no clear call. Such entries were picked first, then a sample of the others. The call rests on the fitted dose curve; in most records, active means well fitted inhibition curve with a large enough effect; inconclusive means small, poorly fitted or top-dose-only effect, or effect the other way; inactive means no such curve, though single readings can be large or run the other way. Potencies of inconclusive entries are left out as doubtful fits.

Biological target: Neuropeptide S receptor (Homo sapiens) (UniProt Q6W5P4)
Test: qHTS Assay for Antagonists of the Neuropeptide S Receptor: cAMP Signal Transduction; further: nearly all actives have a fitted effect of over 50% in size
Details: CHO-NPSR cells, cAMP TR-FRET, antagonist mode; activity change, negative = inhibition: at 38.3 µM (top of the series) unless noted
On the % scale 0 is the no-effect control and ±100 the full control effect; potency means the concentration at half of the fitted maximal effect; tags describe the fitted curve by direction and shape.

Chain of UniProt Q6W5P4 (Q6W5P4 whole entry, looked up): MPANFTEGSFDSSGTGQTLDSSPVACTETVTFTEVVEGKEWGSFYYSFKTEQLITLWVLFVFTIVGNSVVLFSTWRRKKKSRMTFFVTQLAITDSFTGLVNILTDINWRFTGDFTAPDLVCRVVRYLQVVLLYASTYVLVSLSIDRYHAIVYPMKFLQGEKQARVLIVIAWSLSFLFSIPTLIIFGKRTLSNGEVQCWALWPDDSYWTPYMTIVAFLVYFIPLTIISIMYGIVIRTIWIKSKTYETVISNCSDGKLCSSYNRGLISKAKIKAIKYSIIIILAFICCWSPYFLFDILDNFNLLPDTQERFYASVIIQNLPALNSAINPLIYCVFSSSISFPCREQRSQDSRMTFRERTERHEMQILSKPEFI

Structure (SMILES)	Potency	activity change, negative = inhibition
Cc1ccc(SC(c2ccc(C)cc2)C(Cn2cncn2)C(=O)c2ccccc2)cc1 (stereo not drawn)	inconclusive [inhibitor, partial curve, poor fit]	–
CCc1[nH]nc2c1C(C(C)C)C(C#N)=C(N)O2 (stereo not drawn)	–	inactive: -0.254% [at 46.1 µM]
CCOC(=O)N1CCN(C(=O)c2cc3c(s2)-c2ccccc2OC3)CC1	–	inactive: -7.49% [at 46.1 µM]
CCC(=O)NC1=C(C#N)C2(CCCC2)Cc2ccccc21	inconclusive [inhibitor, single point]	–
CCNC(=S)N(Cc1ccccc1)Cc1nc2ccccc2c(=O)[nH]1	–	inactive: 8.16%
Cc1cc(C)n2nc(SCc3cc(=O)oc4cc(C)c(C)cc34)nc2n1	inconclusive [inhibitor, single point]	–
Cc1nc(CC(=O)c2c(C)cc(O)cc2O)cs1	inconclusive [inhibitor, single point]	–
N=c1oc2ccccc2cc1-c1nc(-c2ccccc2)cs1	inconclusive [inhibitor, single point]	–
Oc1ccc(N=Nc2nc(-c3ccccc3)c(-c3ccccc3)[nH]2)cc1	inconclusive [inhibitor, single point]	–
COc1ccccc1-c1nc(SCC(=O)N(C)c2ccccc2)c2c(=O)n(C)c(=O)n(C)c2n1	inconclusive [inhibitor, single point]	–
COc1cc2c(cc1OC)-c1n[nH]c(=S)n1C(C)(C)C2	–	inactive: 11.7%
O=C(NCc1ccc(F)cc1)C1CCCN(c2nc3ccsc3c(=O)s2)C1 (stereo not drawn)	inconclusive [inhibitor, single point]	–
O=C(COC(=O)c1cccs1)NC12CC3CC(CC(C3)C1)C2	–	inactive: 9.06%
CC1CCN(c2nc3c(c(=O)[nH]c(=O)n3C)n2CCSc2nc3ccccc3o2)CC1	inconclusive [inhibitor, single point]	–
CC1CCN(CCCNC(=O)c2cn(C)c3ccc(S(=O)(=O)N4CCCC4)cc3c2=O)CC1	inconclusive [activator, full curve]	–
Cc1ccc(C(=O)Nc2ccccc2Oc2ccccc2)cc1[N+](=O)[O-]	inconclusive [inhibitor, single point]	–
CCCn1c(CCC(=O)O)ccc1-c1ccccc1	–	inactive: 0.865%
CC[C@H](NC(=O)c1c(C)c(-c2ccccc2)nc2ccccc12)c1ccccc1	inconclusive [inhibitor, full curve, poor fit]	–
COc1cc(/C=C(\C#N)C(=O)c2c(C)[nH]c3ccccc23)cc(OC)c1OC	inconclusive [inhibitor, partial curve]	–
CC1(c2ccc(Cl)cc2)NC(=S)N2C1NC(=S)N2c1ccccc1 (stereo not drawn)	inconclusive [inhibitor, single point]	–
Cn1cc([N+](=O)[O-])c(C(=O)Nc2ccc(-c3nc4ccccc4o3)cc2)n1	–	inactive: 3.33%
COc1cccc(/C=N/NC(=S)Nc2cccc(S(=O)(=O)N(C)C)c2)c1	inconclusive [inhibitor, full curve, poor fit]	–

Structure (SMILES)	Potency	activity change, negative = inhibition
Cc1ccc(C(C(=O)NC(C)(C)C)N(CC2CCCO2)C(=O)Cn2nnc(-c3ccc(C)o3)n2)cc1 (stereo not drawn)	inconclusive [inhibitor, partial curve]	–
Cc1cc(C=O)c(C)n1-c1ccc(N2CCCC2)c([N+](=O)[O-])c1	inconclusive [inhibitor, single point]	–
O=C(Nc1cccc(C(F)(F)F)c1)Oc1ccc(Cl)c2cccnc12	inconclusive [activator, single point]	–
O=C(C(Cc1ccccc1)N1C(=O)c2ccccc2C1=O)N1CCc2ccccc21 (stereo not drawn)	inconclusive [inhibitor, partial curve, poor fit]	–
COc1cccc(NC(=O)c2cc([N+](=O)[O-])ccc2NCc2cccnc2)c1	inconclusive [inhibitor, single point]	–
N#C/C(=C\c1c(F)cccc1Cl)c1nn(-c2ccccc2)c(-n2cccc2)c1C#N	inconclusive [activator, full curve]	–
COc1ccc(N2C(=O)NC3CC2(C)Oc2ccc(Br)cc23)cc1OC (stereo not drawn)	–	inactive: -4.22% [at 46.1 µM]
Cc1[nH]nc(N=CC2=C(O)CC(c3ccco3)CC2=O)c1-c1ccccc1 (stereo not drawn)	inconclusive [inhibitor, partial curve, poor fit]	–
O=C(O)c1ccc(N2C(=O)CC(N3CCC(c4nc5ccccc5[nH]4)CC3)C2=O)cc1 (stereo not drawn)	–	inactive: 11.1%
COc1ccc(C(=O)N/N=C\c2coc3ccccc3c2=O)cc1	–	inactive: -10.4%
COc1ccc(/C=C2\C(=O)c3ccccc3OC2c2ccccc2)cc1 (stereo not drawn)	inconclusive [activator, partial curve]	–
COc1ccccc1N1C(=O)CC(Nc2ccc(N3CCOCC3)cc2)C1=O (stereo not drawn)	inconclusive [inhibitor, partial curve]	–
CCOC(=O)C(=CNc1ccc2c(c1)c1ccccc1n2CC)C(=O)OCC	inconclusive [inhibitor, single point]	–
NC(=O)c1ccccc1NC(=O)/C=C/c1ccc(Cl)cc1	inconclusive [inhibitor, partial curve]	–
CC(C)CC(c1nnnn1Cc1ccco1)N1CCN(c2cccc(Cl)c2)CC1 (stereo not drawn)	inconclusive [inhibitor, single point]	–
Cc1ccc(NS(=O)(=O)c2ccc(OCC(=O)Nc3cccc([N+](=O)[O-])c3)c(C)c2)cc1	inconclusive [inhibitor, partial curve]	–
Cn1c(SCC(=O)c2ccc(-c3ccccc3)cc2)nnc1-c1ccco1	–	inactive: -1.34% [at 46.1 µM]
Cc1ccc(NC(=O)CSc2nc(N)cc(=O)[nH]2)cc1S(=O)(=O)N1CCOCC1	–	inactive: -22.2%
CCc1nc(SCC(=O)N2c3ccccc3CC2C)c2c(C)c(C)sc2n1 (stereo not drawn)	inconclusive [inhibitor, partial curve]	–
CC(O)/C=C/c1cccc[n+]1C (stereo not drawn)	–	inactive: 11.4% [at 46.1 µM]
Cc1c(/C=N/n2cnnc2)c2ccccc2n1CCOc1ccc(Cl)cc1	inconclusive [inhibitor, single point]	–
